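Briefly, cells in 96-well plates were exposed to five compound concentrations for 48 h, and endpoints were estimated by linear interpolation. GI50 = concentration required for 50% inhibition of growth.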 Active and inactive are the calls of the source. No stated cut-off is given here; in the data, active = GI50 up to about 1.1 µM and inactive = higher.
system: NCI-H322M; test: growth of human tumour cells (NCI), 48 h

Row | SMILES | GI50
1 | O=c1c2ccccc2[nH]c(=S)n1-c1ccc(Br)cc1 | inactive: > 100 µM
2 | COc1ccc(-c2cc(O)c3cc4c(cc3n2)OCO4)c(OC)c1 | inactive: 60.8 µM
3 | N/C(=N\O)N/N=C/c1cc2c(cc1Cl)OCO2 | inactive: 28.7 µM
4 | N#CCc1nc(O)c2ccccc2n1 | inactive: > 100 µM
5 | COC(=O)C1=C(C(=O)OC)SC2(S1)C(C(=O)OC)=C(C(=O)OC)Sc1c2ssc1=O | inactive: 10.8 µM
6 | Nc1nc(O)c2nc3c(nc2n1)C(=O)N(c1ccc(C(=O)O)cc1)C3 | inactive: > 100 µM
7 | CC(=O)c1c(C)[n+]([O-])c2cc(Cl)c(Cl)cc2[n+]1[O-] | inactive: 20.6 µM
8 | NC1CC(=O)c2cscc21 (centres undefined) | inactive: > 100 µM
9 | CCCCn1c(C)c(C(=O)OCC)s/c1=N/Nc1nc2ccccc2nc1-c1ccccc1 | inactive: > 100 µM
10 | O=C1c2ccccc2C2C1N2C(=O)C(F)(F)F (centres undefined) | inactive: > 100 µM
11 | COc1ccc(-c2csc(Cc3nc4ccccc4c(=O)n3-c3ccc(Cl)cc3)n2)cc1 | inactive: 20.5 µM
12 | CC1NOC(=O)C1/N=N/c1ccccc1Br (centres undefined) | inactive: 55.2 µM
13 | Cc1cc(N(CCC#N)S(=O)(=O)c2ccccc2)ccc1/C=C1N=C(/C=C/c2ccccc2)OC\1=O | inactive: > 100 µM
14 | CC(C)OC(=O)[C@@H]1OC(C)(C)O[C@H]1C(=O)OC(C)C | inactive: > 100 µM
15 | CCCCCC1CC=CC(NC(=O)OCc2ccccc2)C1/C=C/CCCC1OCCO1 (centres undefined) | inactive: > 100 µM
16 | COc1ccc(C2=C(Cl)C(=O)N(c3ccc(OC)cc3OC)C(=O)C2(Cl)Cl)cc1 | inactive: 19.3 µM
17 | C=CCc1cc(OC)c2c(c1)C(O)CC(c1ccccc1)O2 (centres undefined) | inactive: > 100 µM
18 | CCn1nc(C)c2c1C(=O)NCC(=O)N2 | inactive: > 100 µM
19 | CCNC(=O)C#CC(=O)NCC | inactive: > 10 µM
20 | O=C1Oc2ccccc2C(=O)/C1=C/NC(=S)NCc1ccccc1 | inactive: 73.3 µM
21 | CCN(CC)c1cc2c3c(c1)CCCN3CCC2 | inactive: > 10 µM
22 | Sc1nnc(C(c2ccccc2)c2ccccc2)[nH]1 | inactive: > 100 µM
23 | BrC12C3C4C5C(C(C43)C13OCCO3)C52 (centres undefined) | inactive: > 100 µM
24 | COc1ccc2nc(C)cc(NCCCCCCCCCNc3cc(C)nc4ccc(OC)cc34)c2c1 | inactive: 2.13 µM
25 | CC12CC(C/C1=N/O)C(C)(C)C2 (centres undefined) | inactive: > 100 µM

Row | SMILES | GI50
26 | NCCSCC(N)C(=O)O (centres undefined) | inactive: 31.1 µM
27 | CC(C)C(=S)N(C)O | inactive: 38.5 µM
28 | CSc1[nH]cnc1C(N)=S | inactive: > 100 µM
29 | C=CCC1(OCc2ccccc2)C(=O)C(=O)OC1C1COC(C)(C)O1 (centres undefined) | inactive: > 100 µM
30 | Clc1ccc(CCN(CCc2ccc(Cl)c(Cl)c2)CCN2CCCC2)cc1Cl | inactive: 2.36 µM
31 | CC(=O)c1ccc(NC(=O)/C(CC(=O)c2sc(-c3cccnc3)nc2C)=N/NC(N)=O)cc1 | inactive: > 100 µM
32 | COc1cc2oc(-c3ccc4c(c3)OCO4)c(OC)c(=O)c2c(OC)c1O | inactive: > 100 µM
33 | O=C(Cn1c2c(c3ccccc31)CCCC2)N1CCOCC1 | inactive: > 100 µM
34 | COc1ccc(O)c(C#N)c1C#N.COc1ccc(OC)c(C#N)c1C#N | inactive: > 100 µM
35 | CC(=O)c1c2c(cc3c1CC1(C3)Cc3ccc4c(c3C1=O)CCC4)CCC2 (centres undefined) | inactive: > 100 µM
36 | CN1c2ccccc2C2=C(c3ccccc3)CC[C@@H](C(=O)N3C4CC5CC[C@@]4(CS3(=O)=O)C5(C)C)[C@@H]21 (some centres undefined) | inactive: > 100 µM
37 | O=C1CCC2(c3ccc(F)cc3)Nc3ncccc3N12 (centres undefined) | inactive: > 100 µM
38 | COc1ccc(OC)c(/C(C)=N/NC(N)=S)c1 | inactive: > 100 µM
39 | O=c1c2sc3nc(NCCN4CCCCC4)ncc3c2ncn1-c1ccccc1 | inactive: 40.7 µM
40 | COC(=O)Cc1c(C2=Nc3ccccc3C2(O)CC(=O)OC)[nH]c2ccccc12 (centres undefined) | inactive: 50 µM
41 | O=C(N[C@@H](c1ccccc1)[C@@H](O)C(=O)OCc1ccc([N+](=O)[O-])cc1)c1ccccc1 | inactive: > 100 µM
42 | COC(=O)c1ccccc1C1CN=NC12Cc1c(C)cc(C)cc1C2=O (centres undefined) | inactive: 77.1 µM
43 | COc1ccc2c(=O)c3cc([N+](=O)[O-])ccc3n(C)c2c1 | inactive: > 100 µM
44 | CSC(=N\c1ccccc1)/N=C(\SCc1ccccc1)N(C)C | inactive: 1.85 µM
45 | COc1ccc(-c2nc(SCC(=O)N/N=C/c3ccc([N+](=O)[O-])cc3)[nH]c2-c2ccc(OC)cc2)cc1 | inactive: 11.2 µM
46 | C/C(=N\N)C(CN(C)C)C(c1ccccc1)c1c(O)c2ccccc2oc1=O (centres undefined) | inactive: > 100 µM
47 | Cc1c(Cl)c(=O)oc2cc(OCC(=O)c3ccccc3)ccc12 | inactive: > 100 µM
48 | COC(=O)C1(Cc2ccc3c(c2)CCC3)Cc2cc3c(cc2C1)CCC3 | inactive: > 100 µM
49 | COc1cc2c(c(OC)c1OC)-c1ccc(SC)cc1C(O)CC2 (centres undefined) | inactive: 41.5 µM
